Drawing on publication PMC7968925, this text covers binding for six molecules.

Protein sequences, listed by entry. Tags and fused reporters are not part of them.
UniProt Q09XV5: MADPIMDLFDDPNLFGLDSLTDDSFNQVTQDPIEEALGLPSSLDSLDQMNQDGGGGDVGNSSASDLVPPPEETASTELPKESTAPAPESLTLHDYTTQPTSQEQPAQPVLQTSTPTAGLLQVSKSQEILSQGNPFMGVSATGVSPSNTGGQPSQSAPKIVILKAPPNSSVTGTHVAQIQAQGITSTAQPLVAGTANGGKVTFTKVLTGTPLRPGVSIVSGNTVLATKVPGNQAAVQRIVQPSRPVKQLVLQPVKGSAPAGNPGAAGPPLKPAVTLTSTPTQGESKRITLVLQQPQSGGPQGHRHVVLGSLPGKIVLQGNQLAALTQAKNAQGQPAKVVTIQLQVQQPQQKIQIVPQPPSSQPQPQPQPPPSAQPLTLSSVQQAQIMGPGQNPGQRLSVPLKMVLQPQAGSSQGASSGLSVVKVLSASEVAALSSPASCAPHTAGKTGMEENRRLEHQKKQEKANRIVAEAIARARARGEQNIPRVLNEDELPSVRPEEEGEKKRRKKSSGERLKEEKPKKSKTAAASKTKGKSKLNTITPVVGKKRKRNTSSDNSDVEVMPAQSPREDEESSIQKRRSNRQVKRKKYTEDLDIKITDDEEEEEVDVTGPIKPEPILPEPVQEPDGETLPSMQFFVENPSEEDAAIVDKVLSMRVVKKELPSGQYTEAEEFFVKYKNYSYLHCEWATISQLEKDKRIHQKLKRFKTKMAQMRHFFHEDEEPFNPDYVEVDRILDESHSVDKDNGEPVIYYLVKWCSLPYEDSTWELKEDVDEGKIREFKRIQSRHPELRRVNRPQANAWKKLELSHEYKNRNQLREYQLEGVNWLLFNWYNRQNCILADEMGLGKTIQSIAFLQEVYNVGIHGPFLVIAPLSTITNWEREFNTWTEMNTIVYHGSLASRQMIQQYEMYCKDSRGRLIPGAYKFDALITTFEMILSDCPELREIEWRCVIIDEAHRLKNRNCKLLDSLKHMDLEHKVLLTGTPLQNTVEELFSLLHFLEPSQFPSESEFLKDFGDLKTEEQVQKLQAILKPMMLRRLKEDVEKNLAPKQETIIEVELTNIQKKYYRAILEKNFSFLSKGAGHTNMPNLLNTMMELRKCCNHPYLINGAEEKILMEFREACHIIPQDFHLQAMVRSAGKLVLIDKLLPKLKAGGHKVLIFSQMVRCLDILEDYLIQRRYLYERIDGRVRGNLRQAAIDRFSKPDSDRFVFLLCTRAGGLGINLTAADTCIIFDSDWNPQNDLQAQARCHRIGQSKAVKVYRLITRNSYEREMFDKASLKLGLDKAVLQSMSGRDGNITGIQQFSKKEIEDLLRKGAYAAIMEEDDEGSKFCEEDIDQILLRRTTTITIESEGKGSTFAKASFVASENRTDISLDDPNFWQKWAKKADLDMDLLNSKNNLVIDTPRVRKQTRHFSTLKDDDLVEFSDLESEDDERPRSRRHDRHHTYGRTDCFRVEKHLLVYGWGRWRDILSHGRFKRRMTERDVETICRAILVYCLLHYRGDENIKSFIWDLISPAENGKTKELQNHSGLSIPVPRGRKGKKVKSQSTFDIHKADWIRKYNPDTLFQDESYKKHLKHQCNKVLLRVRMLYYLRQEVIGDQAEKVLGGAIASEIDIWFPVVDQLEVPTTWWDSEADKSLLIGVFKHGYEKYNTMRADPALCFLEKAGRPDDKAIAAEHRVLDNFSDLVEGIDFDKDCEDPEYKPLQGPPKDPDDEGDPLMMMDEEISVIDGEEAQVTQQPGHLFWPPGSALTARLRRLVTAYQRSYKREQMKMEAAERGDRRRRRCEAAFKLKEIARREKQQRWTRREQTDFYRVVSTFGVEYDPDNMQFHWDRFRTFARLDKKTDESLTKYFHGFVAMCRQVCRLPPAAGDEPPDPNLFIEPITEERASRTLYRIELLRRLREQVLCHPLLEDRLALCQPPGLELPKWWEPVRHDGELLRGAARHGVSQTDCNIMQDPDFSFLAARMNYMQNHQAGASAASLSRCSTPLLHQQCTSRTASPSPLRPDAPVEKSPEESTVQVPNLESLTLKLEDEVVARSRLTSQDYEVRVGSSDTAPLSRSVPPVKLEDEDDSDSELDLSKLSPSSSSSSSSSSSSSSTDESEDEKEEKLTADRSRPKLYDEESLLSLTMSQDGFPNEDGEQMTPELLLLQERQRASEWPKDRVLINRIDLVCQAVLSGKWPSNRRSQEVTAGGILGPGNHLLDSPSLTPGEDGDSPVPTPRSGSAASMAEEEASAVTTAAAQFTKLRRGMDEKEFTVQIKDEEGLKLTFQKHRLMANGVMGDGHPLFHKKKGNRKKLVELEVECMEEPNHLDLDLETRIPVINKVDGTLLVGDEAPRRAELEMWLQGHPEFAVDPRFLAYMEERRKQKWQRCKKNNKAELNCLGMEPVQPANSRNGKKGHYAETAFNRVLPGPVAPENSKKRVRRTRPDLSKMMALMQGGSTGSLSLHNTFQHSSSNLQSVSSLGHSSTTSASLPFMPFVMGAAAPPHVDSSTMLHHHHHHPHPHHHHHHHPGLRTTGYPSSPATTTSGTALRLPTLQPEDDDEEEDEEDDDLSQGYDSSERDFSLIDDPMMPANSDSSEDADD
UniProt Q06348: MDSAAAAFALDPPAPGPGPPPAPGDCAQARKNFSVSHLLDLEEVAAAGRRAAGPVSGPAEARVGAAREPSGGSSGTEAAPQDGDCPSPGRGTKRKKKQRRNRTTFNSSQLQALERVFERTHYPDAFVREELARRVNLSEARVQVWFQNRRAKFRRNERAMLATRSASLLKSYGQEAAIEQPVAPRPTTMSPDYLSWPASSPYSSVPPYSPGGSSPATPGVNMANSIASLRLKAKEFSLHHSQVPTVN
UniProt P63013: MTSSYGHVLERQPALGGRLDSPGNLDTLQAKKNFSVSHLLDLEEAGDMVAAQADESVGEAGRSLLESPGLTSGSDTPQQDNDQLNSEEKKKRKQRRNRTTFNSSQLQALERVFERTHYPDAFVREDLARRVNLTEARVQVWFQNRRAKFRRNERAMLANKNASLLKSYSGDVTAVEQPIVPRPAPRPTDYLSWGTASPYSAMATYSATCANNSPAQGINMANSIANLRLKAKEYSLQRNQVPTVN
UniProt P15806: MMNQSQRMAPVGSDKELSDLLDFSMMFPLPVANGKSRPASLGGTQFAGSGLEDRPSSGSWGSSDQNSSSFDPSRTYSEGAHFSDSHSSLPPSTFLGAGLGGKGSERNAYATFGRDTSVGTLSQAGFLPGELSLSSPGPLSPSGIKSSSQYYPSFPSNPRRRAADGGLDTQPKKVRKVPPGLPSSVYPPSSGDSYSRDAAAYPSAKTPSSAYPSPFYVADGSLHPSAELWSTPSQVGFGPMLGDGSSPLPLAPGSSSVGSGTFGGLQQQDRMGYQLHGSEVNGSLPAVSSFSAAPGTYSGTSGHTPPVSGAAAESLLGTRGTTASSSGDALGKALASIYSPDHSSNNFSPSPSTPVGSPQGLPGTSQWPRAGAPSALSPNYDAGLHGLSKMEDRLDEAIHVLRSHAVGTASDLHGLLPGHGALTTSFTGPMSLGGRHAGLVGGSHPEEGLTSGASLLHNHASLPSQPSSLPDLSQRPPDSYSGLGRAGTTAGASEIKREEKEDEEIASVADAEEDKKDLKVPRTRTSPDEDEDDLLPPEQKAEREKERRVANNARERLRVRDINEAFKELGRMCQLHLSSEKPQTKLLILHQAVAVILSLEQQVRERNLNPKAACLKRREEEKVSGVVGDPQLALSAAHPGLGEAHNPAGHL
UniProt O54941: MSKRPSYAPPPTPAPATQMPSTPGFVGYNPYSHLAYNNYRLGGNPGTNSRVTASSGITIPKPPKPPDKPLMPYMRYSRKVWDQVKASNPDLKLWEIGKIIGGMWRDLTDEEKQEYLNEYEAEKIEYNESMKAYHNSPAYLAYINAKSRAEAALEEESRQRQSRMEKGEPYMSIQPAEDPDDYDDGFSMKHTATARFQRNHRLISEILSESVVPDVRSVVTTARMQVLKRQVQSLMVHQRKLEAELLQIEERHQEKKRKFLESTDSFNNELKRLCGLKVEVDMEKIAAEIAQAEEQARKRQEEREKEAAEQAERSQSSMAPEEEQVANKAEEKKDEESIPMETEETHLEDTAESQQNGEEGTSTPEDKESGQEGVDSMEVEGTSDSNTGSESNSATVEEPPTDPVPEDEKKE

No constants are given. Whether binding was seen depends on the method and setting. Binding seen in cells or lysates may run through a third protein. Some binding calls cover weakened binding; strength is not graded here. Tags and fused reporters may be left off the sequences shown.

To fix the notation:
T1: TWIST1 (pCMV-Twist1-FLAG) (mouse) (UniProt P26687)
T1 sequence: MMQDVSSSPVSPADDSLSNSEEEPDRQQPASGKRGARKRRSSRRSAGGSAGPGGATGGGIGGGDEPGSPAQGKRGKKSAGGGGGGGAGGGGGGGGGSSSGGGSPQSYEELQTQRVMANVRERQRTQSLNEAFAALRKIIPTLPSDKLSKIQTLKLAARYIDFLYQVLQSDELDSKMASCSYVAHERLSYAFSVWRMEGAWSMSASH

T2: GST-Twist1 (full-length TWIST1) (mouse) (UniProt P26687)
T2 sequence: T1 sequence

B1: HA-tagged DVL1 (pCMV-Dvl1-HA) (protein, UniProt P51141 1-695)
chain: MAETKIIYHMDEEETPYLVKLPVAPERVTLADFKNVLSNRPVHAYKFFFKSMDQDFGVVKEEIFDDNAKLPCFNGRVVSWLVLAEGAHSDAGSQGTDSHTDLPPPLERTGGIGDSRPPSFHPNVASSRDGMDNETGTESMVSHRRERARRRNRDEAARTNGHPRGDRRRDLGLPPDSASTVLSSELESSSFIDSDEEDNTSRLSSSTEQSTSSRLVRKHKCRRRKQRLRQTDRASSFSSITDSTMSLNIITVTLNMERHHFLGISIVGQSNDRGDGGIYIGSIMKGGAVAADGRIEPGDMLLQVNDVNFENMSNDDAVRVLREIVSQTGPISLTVAKCWDPTPRSYFTIPRADPVRPIDPAAWLSHTAALTGALPRYGTSPCSSAITRTSSSSLTSSVPGAPQLEEAPLTVKSDMSAIVRVMQLPDSGLEIRDRMWLKITIANAVIGADVVDWLYTHVEGFKERREARKYASSMLKHGFLRHTVNKITFSEQCYYVFGDLCSNLASLNLNSGSSGASDQDTLAPLPHPSVPWPLGQGYPYQYPGPPPCFPPAYQDPGFSCGSGSAGSQQSEGSKSSGSTRSSHRTPGREERRATGAGGSGSESDHTVPSGSGSTGWWERPVSQLSRGSSPRSQASAVAPGLPPLHPLTKAYAVVGGPPGGPPVRELAAVPPELTGSRQSFQKAMGNPCEFFVDIM

For the first test, the target named is T1, TWIST1 (pCMV-Twist1-FLAG) (mouse). The experiment in a line: co-IP; O9-1 cells transfected with TWIST1 (pCMV-Twist1-FLAG) and one HA-tagged partner; cleared lysate with α-TWIST1/α-FLAG antibody (1 μg/mL) 4°C 2 hr, Protein-G agarose; blot α-HA.
As for “HA-tagged CHD8 (pCMV-Chd8-HA) (from UniProt Q09XV5 1-2582)”, the binding result is “binds”.

On to “HA-tagged PRRX2 (pCMV-Prrx2-HA) (from UniProt Q06348 1-247)”, for which the binding entry is recorded as “binds”.

For the molecule “HA-tagged PRRX1 (pCMV-Prrx1-HA) (from UniProt P63013 1-245)”, the binding entry is given as “binds”.

On to “HA-tagged TCF3 (pCMV-Tcf3-HA) (from UniProt P15806 1-651)”, for which the binding result is reported as “binds”.

“HA-tagged SMARCE1 (pCMV-Smarce1-HA) (from UniProt O54941 1-411)”: the binding entry is listed as “no binding”.

For the molecule B1, the binding result is “binds”.

Another test deals with T2, GST-Twist1 (full-length TWIST1) (mouse). The experiment in a line: pull-down; GST-TWIST1 constructs on Glutathione Sepharose beads incubated with lysate of cells expressing HA-tagged proteins (benzonase treated), 4°C 4 hr; blot α-HA; only the target purified.
With “HA-tagged SMARCE1 (pCMV-Smarce1-HA) (from UniProt O54941 1-411)”, the binding entry is on record as “no binding”.
